According to PubChem BioAssay (NCATS):
This list was built around the results that the source calls inconclusive (neither active nor inactive); the mix of calls is not that of the screen. For some assays here: No potency is given beside an inconclusive call; the fits are too rough. Calls of active or inactive are those of the source. Unless noted, calls follow the shape of the dose curve; as a rule, active = well fitted curve in the direction sought with a large enough effect; inconclusive = small, poorly fitted or top-dose-only effect, or another doubt; inactive = no such curve, though single readings can be large; an effect the other way counts as inactive or inconclusive.

What was measured:
[1] = system: Nanoluciferase (engineered Oplophorus gracilirostris luciferase); test: Primary Nanoluciferase (NLuc) qHTS assay for identification of artifact compounds. (AID 1845222); conditions: NLuc-conditioned medium, Nano-Glo luminescence, 5 min; series mostly up to 54.1 µM;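 also: NLuc secreted into diluted conditioned medium of S16 cells; potency is read from the fitted curve at half-maximal effect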
In short: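 S16 cell supernatant NLuc, 1:55; cpds qHTS; 15 min RT dark; Nano-Glo substrate 1:100, 5 min; luminescence; Hill fit of % inhibition.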

[2] = qHTS assay for small molecule activators of the nuclear factor-kappa B (NF-kB) signaling pathway (AID 651749; active = well fitted activation curve with a large enough effect in the signal ratio; inconclusive = small, poorly fitted or top-dose-only effect, or a change in a side signal; the % refers to the signal ratio; also: % of control where 0% means no effect); conditions: NF-kB-bla ME-180 cells, beta-lactamase FRET ratio, 16 h; activation: hits give high values
In short: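 In this qHTS format, compounds acting as activators increase NF-kB-driven beta-lactamase in ME-180 cells, measured as disrupted FRET after 16 hr exposure at 37C and 5% CO2.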

[3] = Cell Viability - LYMP2-006 (AID 978); conditions: LYMP2-006 lymphoblastoid cell viability, qHTS; series mostly up to 92.2 µM;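 also: cells exposed to compound for 24 hours; % is scaled to controls: 0 for no effect and ±100 for the full control effect; nearly all actives have a fitted effect of over 60% in size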
In short: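 Cells are seeded at 2500 per well and rested 5 hr at 37 C. Compounds are added across a concentration series for 24 hr at 37 C, after which ATP is quantified by luciferase luminescence.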

[4] = biological target: Thyroid hormone receptor beta (Homo sapiens) (UniProt P10828); test: qHTS assay for small molecule antagonists of thyroid hormone receptor beta signaling (AID 588547; active = well fitted inhibition curve with a large enough effect in the signal ratio, with a control signal flat, not every such curve was filed as active; inconclusive = small, poorly fitted or top-dose-only effect, or effect the other way, or a change in a side signal; the % refers to the signal ratio;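 also: cells stimulated with 0.4 nM T3 agonist during compound exposure; % is scaled to controls: 0 for no effect and ±100 for the full control effect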); conditions: TR-UAS-bla HEK293, beta-lactamase ratio, antagonist mode, 18 h
In short: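 TR-UAS-bla GripTite HEK293 cells in 2% charcoal/dextran FBS medium; compounds 0.59 nM to 92 uM with T3 at 0.4nM final, 18 h at 37 C. Beta-lactamase read by CCF4 fluorescence (460/530 nm); Hill fits gave IC50 and efficacy.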

[5] = biological target: Nuclear receptor ROR-gamma (Homo sapiens) (UniProt P51449); test: qHTS assay for small molecule antagonists of the retinoid-related orphan receptor gamma (ROR-gamma) signaling pathway (AID 651802); conditions: ROR-gamma antagonist cell reporter assay; series mostly up to 92.2 µM;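 also: CHO cells with doxycycline-induced ROR-gamma expression; luciferase reporter luminescence driven by ROR response element; % is scaled to controls: 0 for no effect and ±100 for the full control effect; nearly all actives have a fitted effect of over 60% in size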
In short: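 Luminescence (One-Glo, 30 min RT) measured 16 h after compound addition and doxycycline induction at 37C. Reporter: RORE-luciferase under TET-inducible ROR-gamma in CHO cells.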

[6] = biological target: Beta-2 adrenergic receptor (Homo sapiens) (UniProt P07550); test: qHTS validation assay of beta-arrestin-biased ligands of beta2-adrenergic receptor (AID 485366); conditions: cell-based beta-arrestin recruitment to ADRB2, qHTS; series mostly up to 46.1 µM; also: potency is read from the fitted curve at half-maximal effect
In short: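 Screening used a titration range of up to 46 microM in a beta-arrestin recruitment Tango luciferase assay. Cells in 1% FBS medium were treated 18 hr at 37 degrees C, and luminescence was normalized to %Activity.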

[7] = Validation screen for small molecules that induce DNA re-replication in SW480 colon adenocarcinoma cells (AID 504364); conditions: DNA re-replication phenotype (high-content imaging); series mostly up to 46.1 µM; also: 0% is about no effect
In short: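 Image-based DNA content read-out: Hoechst stain 40 min, total nuclear fluorescence intensity (ex 405 nm, em 500-530 nm) after 48 h compound exposure of 250 SW480 cells/well at 37 C, 5% CO2, versus DMSO vehicle.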

[8] = biological target: Atrial natriuretic peptide receptor 2 (Homo sapiens) (UniProt P20594); test: Natriuretic polypeptide receptor (hNpr2) antagonism - Pilot subtype selectivity assay (AID 1347050; calls by dose curve; also: % is scaled to controls: 0 for no effect and ±100 for the full control effect); conditions: NPR2-expressing cells, cGMP antagonist-mode read-out; series mostly up to 38.3 µM
In short: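 Luminescence from a genetically encoded cGMP luciferase biosensor in hNpr2-expressing HEK293 cells is read before and 20 min after adding 1 nM hNppC. Test compounds, in interplate 1:5 titrations, are added 30-50 min ahead of the agonist.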

[9] = Quantitative High-Throughput drug screen in 47 multiple myeloma cell lines against the NCATS MIPE library collection: Karpas620_DSMZ cell viability assay (AID 1918959); conditions: Karpas620 myeloma viability, CellTiter-Glo ATP luminescence, 48 h; series mostly up to 45.8 µM; also: potency is read from the fitted curve at half-maximal effect; nearly all actives have a fitted effect of over 30% in size
In short: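 We plated 500 myeloma cells per well, pinned in MIPE 4.0 compounds, and incubated for 48 hours at 37C. ATP was then quantified with CellTiter-Glo, with DMSO and media-only wells defining 100% and 0%.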

[10] = Quantitative High-Throughput drug screen in 47 multiple myeloma cell lines against the NCATS MIPE library collection: MM1R_ATCC cell viability assay (AID 1918981); conditions: MM1R multiple myeloma cells, CellTiter-Glo viability, 48 h; series mostly up to 45.8 µM; also: nearly all actives have a fitted effect of over 35% in size
In short: (§1)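 Cells were exposed to library compounds for 48 hours, after which ATP was measured by CellTiter-Glo. Signal was taken as median relative luminescence units.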

[11] = Quantitative High-Throughput drug screen in 47 multiple myeloma cell lines against the NCATS MIPE library collection: OPM1_PLB cell viability assay (AID 1918989); conditions: CellTiter-Glo, 48 h; series mostly up to 45.8 µM; also: potency is read from the fitted curve at half-maximal effect; nearly all actives have a fitted effect of over 40% in size
In short: as §1

[12] = Quantitative High-Throughput drug screen in 47 multiple myeloma cell lines against the NCATS MIPE library collection: XG1_PLB cell viability assay (AID 1919866); conditions: CellTiter-Glo ATP, 48 h; series mostly up to 45.8 µM; also: potency is read from the fitted curve at half-maximal effect; nearly all actives have a fitted effect of over 35% in size
In short: as §1

[13] = system: Zika virus NS2B-NS3 protease (unlinked); test: Optimization of GU AMC qHTS for Zika virus inhibitors: Unlinked NS2B-NS3 protease assay (AID 1347151); conditions: recombinant ZIKV NS2B-NS3 protease, fluorogenic AMC substrate; series mostly up to 52.5 µM; also: potency is read from the fitted curve at half-maximal effect; nearly all actives have a fitted effect of over 80% in size
In short: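 Unlinked protease (25 nM final); buffer 10 mM Tris-HCl pH 8.0 + 0.01% Tween 20; AMC substrate; 15 min RT, dark; Δfluorescence normalized to no-inhibitor/no-enzyme controls; 4-parameter Hill fit.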

[14] = biological target: Calcium and integrin-binding protein 1 (Homo sapiens) (UniProt Q99828); test: Validation qHTS for Identification of Calcium Integrin Binding protein 1 (CIB1) Competitor (AID 1508618); conditions: CIB1-GST / FITC-alphaIIb peptide fluorescence polarization; series mostly up to 114 µM; also: potency is read from the fitted curve at half-maximal effect
In short: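 In this qHTS validation, the LOPAC set (up to 114 uM) was tested for blocking CIB1 binding to a fluorescein-tagged alphaIIb peptide, with FP detection at 480/540 nm.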

[15] = Quantitative High-Throughput drug screen in 47 multiple myeloma cell lines against the NCATS MIPE library collection: KMS26_JCRB cell viability assay (AID 1918975); conditions: KMS26 myeloma cells viability, CellTiter-Glo ATP, 48 h; viability (% of DMSO): at 45.8 µM (top of the series); also: potency is read from the fitted curve at half-maximal effect; nearly all actives have a fitted effect of over 45% in size
In short: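 qHTS of the MIPE 4.0 collection: 500 myeloma cells/well, 48 h drug exposure at 37C in 5% CO2, then CellTiter-Glo for 5 min at room temperature before luminescence reading.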

[16] = Quantitative High-Throughput drug screen in 47 multiple myeloma cell lines against the NCATS MIPE library collection: KMS28PE_JCRB cell viability assay (AID 1918983); conditions: KMS28PE multiple myeloma viability, CellTiter-Glo ATP, 48 h; series mostly up to 45.8 µM; also: nearly all actives have a fitted effect of over 35% in size; also: potency is read from the fitted curve at half-maximal effect
In short: as §1

[17] = Quantitative High-Throughput drug screen in 47 multiple myeloma cell lines against the NCATS MIPE library collection: VP6_DJ cell viability assay (AID 1919867); conditions: ATP luminescence, 48 h; series mostly up to 45.8 µM; also: nearly all actives have a fitted effect of over 40% in size; also: potency is read from the fitted curve at half-maximal effect
In short: as §1

[18] = biological target: N-terminal Xaa-Pro-Lys N-methyltransferase 1 (Homo sapiens) (UniProt Q9BV86); test: Confirmatory qHTS for Inhibitors of N-terminal methyltransferase 1 (NTMT1): MTaseGlo Assay (AID 1645874); conditions: NTMT1 enzyme, MTase-Glo SAH luminescence; series mostly up to 100 µM; also: nearly all actives have a fitted effect of over 65% in size; also: potency is read from the fitted curve at half-maximal effect
In short: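 Room-temperature NTMT1 reaction, 30 min, with 100 uM SAM and 1 uM SPKRIA substrate; enzyme 125 nM. Read-out: MTase-Glo luminescence, normalized to no-enzyme and DMSO controls.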

[19] = Counterscreen qHTS for small molecule stabilizers of the endoplasmic reticulum resident proteome: GLuc-NoTag assay (AID 1508627); conditions: Gaussia luciferase NoTag secretion counterscreen, luminescence, thapsigargin 100 nM for final 4 h; series mostly up to 76.4 µM; also: potency is read from the fitted curve at half-maximal effect
In short: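 Counterscreen line: SH-SY5Y-GLuc-NoTag. Seed, 5 h; compound, 19 h; thapsigargin 100 nM, 4 h; 37C/5% CO2. Readout: secreted GLuc luminescence, coelenterazine 0.07x final, no lysis.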

[20] = qHTS for differential inhibitors of proliferation of Plasmodium falciparum line D10 (AID 1877); conditions: series mostly up to 28.7 µM;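 also: parasites grown with compound for 72 h before DNA staining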; also: potency is read from the fitted curve at half-maximal effect
Tags tell the direction and shape of the fitted curve.

Chain of UniProt Q9BV86 (Q9BV86 whole entry, looked up): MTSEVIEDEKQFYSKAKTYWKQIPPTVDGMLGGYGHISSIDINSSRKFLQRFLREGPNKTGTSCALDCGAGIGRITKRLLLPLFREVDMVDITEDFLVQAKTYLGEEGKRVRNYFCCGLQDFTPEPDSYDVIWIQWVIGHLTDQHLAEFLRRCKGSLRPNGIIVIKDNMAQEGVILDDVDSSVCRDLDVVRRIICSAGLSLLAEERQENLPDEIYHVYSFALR
Chain of UniProt P20594 (P20594 whole entry, looked up): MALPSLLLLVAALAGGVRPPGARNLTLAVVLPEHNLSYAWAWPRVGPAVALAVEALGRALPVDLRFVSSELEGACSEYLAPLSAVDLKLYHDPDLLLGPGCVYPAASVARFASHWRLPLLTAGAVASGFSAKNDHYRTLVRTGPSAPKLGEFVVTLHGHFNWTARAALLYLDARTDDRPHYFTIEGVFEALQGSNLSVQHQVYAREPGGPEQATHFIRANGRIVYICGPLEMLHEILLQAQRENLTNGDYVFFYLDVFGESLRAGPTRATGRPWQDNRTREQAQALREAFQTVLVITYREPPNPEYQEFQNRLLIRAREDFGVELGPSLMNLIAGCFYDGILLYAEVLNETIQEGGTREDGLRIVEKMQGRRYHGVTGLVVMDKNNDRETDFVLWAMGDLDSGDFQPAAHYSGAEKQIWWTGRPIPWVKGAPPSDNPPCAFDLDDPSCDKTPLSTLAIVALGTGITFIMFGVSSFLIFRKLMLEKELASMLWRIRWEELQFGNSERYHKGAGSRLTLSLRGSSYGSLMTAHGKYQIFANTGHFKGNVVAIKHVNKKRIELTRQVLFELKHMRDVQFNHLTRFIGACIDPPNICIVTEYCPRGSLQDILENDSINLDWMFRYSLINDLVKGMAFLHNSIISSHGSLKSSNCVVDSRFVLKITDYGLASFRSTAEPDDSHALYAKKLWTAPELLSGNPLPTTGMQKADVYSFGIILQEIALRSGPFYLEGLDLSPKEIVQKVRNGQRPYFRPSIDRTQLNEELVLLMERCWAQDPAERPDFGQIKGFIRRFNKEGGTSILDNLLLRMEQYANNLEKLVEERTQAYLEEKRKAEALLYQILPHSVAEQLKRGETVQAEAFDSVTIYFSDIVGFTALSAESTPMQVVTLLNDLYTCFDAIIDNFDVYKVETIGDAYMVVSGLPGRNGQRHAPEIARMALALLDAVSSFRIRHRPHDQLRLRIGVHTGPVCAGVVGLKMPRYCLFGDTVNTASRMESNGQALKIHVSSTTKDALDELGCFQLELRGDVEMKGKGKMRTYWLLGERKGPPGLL
Chain of UniProt P10828 (P10828 whole entry, looked up): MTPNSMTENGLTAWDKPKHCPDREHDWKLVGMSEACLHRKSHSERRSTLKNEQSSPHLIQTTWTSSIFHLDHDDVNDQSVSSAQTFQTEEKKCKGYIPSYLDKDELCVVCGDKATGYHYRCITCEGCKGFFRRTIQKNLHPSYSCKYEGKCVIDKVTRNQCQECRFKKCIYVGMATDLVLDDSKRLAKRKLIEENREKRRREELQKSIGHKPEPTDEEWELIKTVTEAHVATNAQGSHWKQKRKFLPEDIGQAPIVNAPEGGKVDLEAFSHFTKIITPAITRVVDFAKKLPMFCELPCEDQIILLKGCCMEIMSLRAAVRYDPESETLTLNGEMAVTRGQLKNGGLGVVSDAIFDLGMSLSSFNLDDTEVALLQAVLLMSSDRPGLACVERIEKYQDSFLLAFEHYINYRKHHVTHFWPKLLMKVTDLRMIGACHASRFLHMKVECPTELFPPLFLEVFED
Chain of UniProt Q99828 (Q99828 whole entry, looked up): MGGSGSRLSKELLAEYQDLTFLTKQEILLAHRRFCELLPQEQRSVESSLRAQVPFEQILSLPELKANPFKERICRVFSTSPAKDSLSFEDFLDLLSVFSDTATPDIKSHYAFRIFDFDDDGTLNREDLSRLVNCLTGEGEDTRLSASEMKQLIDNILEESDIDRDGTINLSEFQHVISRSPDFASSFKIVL
Chain of UniProt P07550 (P07550 whole entry, looked up): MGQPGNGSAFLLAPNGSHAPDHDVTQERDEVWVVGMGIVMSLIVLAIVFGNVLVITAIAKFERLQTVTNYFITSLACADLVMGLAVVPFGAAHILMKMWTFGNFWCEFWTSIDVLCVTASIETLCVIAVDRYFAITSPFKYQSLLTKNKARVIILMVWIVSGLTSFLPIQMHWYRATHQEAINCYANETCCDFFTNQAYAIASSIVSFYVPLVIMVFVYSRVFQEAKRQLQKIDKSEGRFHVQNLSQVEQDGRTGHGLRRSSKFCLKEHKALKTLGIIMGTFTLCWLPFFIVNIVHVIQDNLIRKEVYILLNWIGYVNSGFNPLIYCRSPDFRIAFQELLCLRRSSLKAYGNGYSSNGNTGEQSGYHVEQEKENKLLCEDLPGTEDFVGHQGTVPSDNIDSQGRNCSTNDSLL
Chain of UniProt P51449 (P51449 whole entry, looked up): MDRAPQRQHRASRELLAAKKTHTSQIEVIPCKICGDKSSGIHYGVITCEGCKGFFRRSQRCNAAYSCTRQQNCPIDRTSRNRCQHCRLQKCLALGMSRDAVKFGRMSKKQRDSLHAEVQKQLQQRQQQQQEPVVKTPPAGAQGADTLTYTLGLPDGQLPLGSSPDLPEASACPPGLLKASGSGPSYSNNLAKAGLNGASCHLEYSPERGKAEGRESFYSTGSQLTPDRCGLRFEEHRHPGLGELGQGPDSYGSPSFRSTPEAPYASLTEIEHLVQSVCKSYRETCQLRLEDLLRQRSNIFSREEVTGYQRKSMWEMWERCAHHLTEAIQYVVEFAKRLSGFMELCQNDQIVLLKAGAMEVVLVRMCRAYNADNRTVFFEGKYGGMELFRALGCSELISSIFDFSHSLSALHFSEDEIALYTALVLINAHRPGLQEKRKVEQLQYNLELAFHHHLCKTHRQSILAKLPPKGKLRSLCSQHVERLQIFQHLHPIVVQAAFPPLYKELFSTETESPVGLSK

## CC1c2ccccc2CN1NC(=O)c1ccc(Cl)c(S(N)(=O)=O)c1 (stereo unspecified)
[1]
  Potency: inconclusive [inhibitor, single point]

## CC(=O)Nc1ccccc1
[2]
  activation: inactive: -0.999%

## CCCCCCCC(=O)OCC(COC(=O)CCCCCCC)OC(=O)CCCCCCC
[3]
  Potency: inactive
[4]
  activity change % (negative = inhibition): inactive: -4.42%
[5]
  Potency: inactive

## CC(C)NCC(O)c1cc(O)cc(O)c1 (stereo unspecified)
[6]
  Potency: inconclusive [rising, partial curve]
[7]
  Potency: inactive
[8]
  Potency: inactive

## O=C(O)CCCCC(CCSCc1ccccc1)SCc1ccccc1 (stereo unspecified)
[9]
  Potency: inconclusive [cytotoxic, partial curve]
[10]
  Potency: inactive
[11]
  Potency: inconclusive [cytotoxic, single point]
[12]
  Potency: inconclusive [cytotoxic, partial curve]

## O=C(O)CCc1nc(-c2ccccc2)c(-c2ccccc2)o1
[13]
  Potency: inconclusive [inhibitor, single point]
[14]
  Potency: inconclusive [inhibitor, partial curve, poor fit]

## Cc1cn2cc(C(=O)N(C)CCO)cc(N[C@@H]3CCOc4cccc(C)c43)c2n1
[15]
  Potency: inconclusive [rising, full curve, poor fit]
[16]
  Potency: inactive
[17]
  Potency: inconclusive [cytotoxic, partial curve, poor fit]

## O=c1[nH]cnc2nc[nH]c12
[18]
  Potency: inactive

## CCOc1ccccc1O[C@H](c1ccccc1)[C@H]1CNCCO1
[19]
  Potency: inconclusive [inhibitor, full curve, poor fit]

## C=CCN1CCc2nc(N)sc2CC1
[19]
  Potency: inactive

## CCC(C)(Oc1ccc(C2(c3ccc(OC(C)(CC)C(=O)O)cc3)CCCCC2)cc1)C(=O)O (stereo unspecified)
[15]
  Potency: inconclusive [cytotoxic, full curve, poor fit]
[16]
  Potency: inconclusive [cytotoxic, partial curve, poor fit]
[17]
  Potency: inactive

## Nc1c2c(nc3ccccc13)CCCC2O (stereo unspecified)
[20]
  Potency: inactive

## COc1cc2ncnc(Nc3cccc(Cl)c3F)c2cc1OC(=O)N1CCN(C)C[C@H]1C
[18]
  Potency: inconclusive [inhibitor, partial curve]

## COCCCC/C(=N\OCCN)c1ccc(C(F)(F)F)cc1
[20]
  Potency: inconclusive [inhibitor, single point]
